# Laboratory results as given in PubChem BioAssay AID1508642 (National Center for Advancing Translational Sciences (NCATS), 2021).
# The whole screen tested about 43,000 compounds, of which about 200 (0.47%) were called active. Another 12% or so got no clear call; they are omitted. The call rests on the fitted dose curve; in most records, active means well fitted cell-killing curve with a large enough effect; inconclusive means small, poorly fitted or top-dose-only effect, or effect the other way; inactive means flat fitted curve, though single readings scatter. The list shows a part of the results.
# Assay: Cell viability qHTS assay in S16 Pmp22-F2sN cells; further: nearly all actives have a fitted effect of over 65% in size
# Conditions: S16 Pmp22-F2sN Schwann cells (luciferase reporters placed in the Pmp22 gene) viability, CellTiter-Glo, 24 h; series mostly up to 57.5 µM; activity change, negative = cytotoxicity: at the top concentration
# In short: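 Seed 500-1,000 S16 Pmp22-F2sN cells per well in phenol-red-free DMEM with 10% heat-inactivated FBS; pin-add 23 nL compound; incubate 24 h at 37C; add CellTiter-Glo, wait 15 min protected from light; read luminescence.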
# On the % scale 0 is the no-effect control and ±100 the full control effect.
row,Structure (SMILES),"activity change, negative = cytotoxicity"
1,COc1ccccc1-c1noc(CCCC(=O)Nc2cccc(C(F)(F)F)c2)n1,inactive: 2.8%
2,CCOc1ccccc1CNC(=O)c1oc2c(c1C)-c1[nH]ncc1CC2,inactive: 0.184%
3,CC1CCN(c2ncnc3c2c(-c2ccccc2)cn3-c2ccc(Br)cc2)CC1,inactive: 12.9%
4,CCCN(CCC)C(=O)Cn1c(=O)n(CCCCCC(=O)NCc2ccc3c(c2)OCO3)c(=O)c2sccc21,inactive: 8.22%
5,Cc1ccc2occ(-c3cc(-c4ccc(F)cc4)nc4c3COc3ccc(F)cc3-4)c(=O)c2c1,inactive: 28.4%
6,COC(=O)c1ccc(NC(=O)CCc2c(C)nc3c(c(C)nn3C(C)(C)C)c2C)cc1,inactive: -9.09%
7,CCN(C(=O)CSc1nc(-c2ccccc2)no1)c1ccccc1,inactive: 8.76%
8,COc1ccc(OC)c(CNC(=O)c2nn(C)c3c2CS(=O)(=O)c2ccccc2-3)c1,inactive: -2.72%
9,CN(C)C(=O)c1ccc2c(c1)N(CC(=O)NCc1ccccc1Cl)C(=O)C1CCCCN21 (stereo not given),inactive: 4.01%
10,Cc1ccccc1CSc1nc(-c2cccc(F)c2)nc2c1Cc1c(CO)cnc(C)c1O2,inactive: 5.17%
11,Cc1ccc2nc(-c3ccc(C)o3)c(Nc3ccc4c(c3)OCCO4)n2c1,inactive: -2.49%
12,COc1ccc(NC(=O)c2oc3ccccc3c2NC(=O)Cc2coc3ccc(C)cc23)cc1,inactive: -3.93%
13,COc1ccc(N2CCN(C(=O)CN3C(=O)COc4ccc(S(=O)(=O)N5CCC(C)CC5)cc43)CC2)cc1,inactive: 12.4%
14,COc1ccc(N2CC(NC(=O)C3CCCCC3)CC2=O)cc1OC (stereo not given),inactive: 2.74%
15,O=C(c1cnc2c(c1)COc1ccc(Cl)cc1-2)c1ccccc1O,inactive: 23.1%
16,Clc1ccccc1CSc1nnc(C2CCNCC2)o1,inactive: -0.435%
17,Cc1nc(SCC(=O)Nc2nsc(-c3ccc(C(C)(C)C)cc3)n2)c2c3c(sc2n1)CCCC3,inactive: -1.45%
18,COc1ccc(N2CCN(S(=O)(=O)CCNC(=O)Cc3ccc(OC)c(OC)c3)CC2)cc1,inactive: -19%
19,COc1ccc(OC)c(CNC(=O)c2ccc3c(c2)c(C)c(C)n3C)c1,inactive: -16.9%
20,CCCCN(CC)C(=O)c1nn(-c2ccc(OC)cc2)c(=O)c2c1c1ccccc1n2C,inactive: -0.0554%

row,Structure (SMILES),"activity change, negative = cytotoxicity"
1,O=C(Cn1c(=O)n(-c2ccccc2)c(=O)c2ccc(C(=O)NCc3ccc4c(c3)OCO4)cc21)Nc1ccc(Br)cc1,inactive: -2.75%
2,Cc1ccc(C)c(N2CCN(C(=O)c3cc4c(=O)oc5ccccc5c4s3)CC2)c1,inactive: -4.47%
3,O=C(CSc1nc2ncccc2o1)Nc1cccc(C(F)(F)F)c1,inactive: 1.24%
4,Cc1cc2oc(C(=O)Nc3cccc(-c4nc5ccccc5o4)c3)c(C)c2cc1C,inactive: 16%
5,COc1ccc(-n2nc3cc(C)c(NC(=O)Cc4ccc(Cl)cc4)cc3n2)cc1,inactive: -15.9%
6,CCOc1ccc(NC(=O)CSc2nnc(CNC(=O)C34CC5CC(CC(C5)C3)C4)n2CC)cc1,inactive: 15.8%
7,CCOC(=O)c1ccccc1NC(=O)Nc1cc2c(cc1N1CCCC1)n(C)c(=O)n2C,inactive: -1.56%
8,COc1cc(C(=O)N(Cc2ccc(N(C)C)cc2)CC2CCCO2)cc(OC)c1OC (stereo not given),inactive: 5.1%
9,Cc1c(C(=O)N(C)C)sc2c1c(=O)n(-c1ccc(Cl)c(Cl)c1)c(=O)n2CC(=O)N1CCCCC1C (stereo not given),inactive: 1.15%
10,CCCC12CN3CC(CCC)(CN(C1)C3c1ccc(OC(C)C)cc1)C2=O (stereo not given),inactive: -3.81%
11,COc1cccc(Cn2c(C)c(CNC3CCCCC3)c(C(=O)O)c2C)c1,inactive: 6.95%
12,COc1ccc(-c2noc(-c3ccc(N4CCN(c5ccccc5OC)CC4)c([N+](=O)[O-])c3)n2)cc1,inactive: 0.881%
13,O=C(CSc1nc(=O)n(Cc2ccncc2)c2c1CCC2)Nc1ccc(F)cc1F,inactive: 7.05%
14,CCCN1CN=C(NS(=O)(=O)c2ccc(NC(C)=O)cc2)NC1,inactive: 3.3%
15,CC(Oc1ccccc1)C(=O)Nc1ccccc1C(=O)OCc1cc(=O)n2nc(C(C)C)sc2n1 (stereo not given),inactive: -5.1%
16,CCc1ccc(NC(=O)CSc2nc(-c3cccc(OC)c3)nc3c2Cc2c(CO)cnc(C)c2O3)cc1,inactive: 9.02%
17,CCn1c(=O)c(=O)n(CC)c2cc(N3CCCCC3)c(NC(=O)c3ccccc3OC)cc21,inactive: 1.55%
18,CCOc1ccc(-c2nc(CSCC(=O)NCCc3ccc(OCC)c(OCC)c3)c(C)o2)cc1,inactive: -11.8%
19,COc1ccccc1-c1c(C)nn2c(N3CCN(c4ccccc4)CC3)cc(C)nc12,inactive: -2.63%
20,CCCN1CCN(CC2=C(C(=O)OCC)C(c3ccc(OC(C)C)cc3)NC(=O)N2)CC1 (stereo not given),inactive: -23.6%

row,Structure (SMILES),"activity change, negative = cytotoxicity"
1,O=C(Nc1ccc2nc(SCC(=O)N3CCOCC3)sc2c1)c1ccc(Br)cc1,inactive: 0.713%
2,CCC(C)NC(=O)CSc1c2c(nc3cc(Cl)ccc13)CCCC2 (stereo not given),inactive: 4.09%
3,C=Cc1ccc(Cn2c(C(=O)O)c(CNC3CCCCC3)c3ccc(OC)cc32)cc1,inactive: -0.205%
4,CCCOC1(C(F)(F)F)NC(=O)N(c2cccc(Cl)c2)C1=O (stereo not given),inactive: 2.41%
5,COc1cccc(CNC(=O)C(=O)NCC(c2ccc3c(c2)OCO3)N2CCOCC2)c1 (stereo not given),inactive: -22.4%
6,COc1ccc(OC)c(CNC(=O)CN2N=C(c3ccc(Cl)cc3)CCC2=O)c1,inactive: 11.2%
7,Cc1ccc(-c2nnn(CC(=O)N(CC(=O)NCCC(C)C)c3ccc(F)cc3)n2)cc1,inactive: -3.43%
8,COc1ccccc1N1CCN(S(=O)(=O)c2cc(-c3cc(C)no3)ccc2C)CC1,inactive: 0.0784%
9,COc1cccc(CN2C(=O)C3(SCC(=O)N3c3cc(C)cc(C)c3)c3ccccc32)c1 (stereo not given),inactive: -0.57%
10,O=C(c1ccc2c(c1)OCCO2)N(Cc1cccnc1)c1nc2ccc(Cl)cc2s1,inactive: 4.27%
11,O=C(NCCc1ccc(F)cc1)C(=O)NCC(c1ccc2c(c1)OCO2)N1CCOCC1 (stereo not given),inactive: 9.09%
12,Cc1ccc2nc(-c3c[nH]c4ccccc34)c(Nc3ccccc3)n2c1,inactive: -2.22%
13,Cc1coc2c1c(C)cc1oc(=O)c(CC(=O)NCc3ccc(Cl)cc3)c(C)c12,inactive: 10.1%
14,Cc1ccc(C(C)C)c(OCC(=O)Nc2nc3c(s2)CCCC3)c1,inactive: 1.33%
15,CCCCCOC(=O)c1ccc(Nc2nc(C(=O)OCC)nc3ccccc23)cc1,inactive: 29.2%
16,COc1ccccc1Oc1nc2c(C)cccn2c(=O)c1/C=C(\C#N)c1nc2ccccc2[nH]1,inactive: -1.32%
17,Cc1nn(CC(=O)NCc2cccc(F)c2)c(=O)c2c(C)n(-c3ccc(Cl)cc3)nc12,inactive: -3.18%
18,Cc1ccc(CCNC(=O)c2cc3sccc3n2Cc2ccc(Cl)cc2)cc1,inactive: 9.17%
19,COc1ccc2nc(N(Cc3cccnc3)C(=O)c3ccco3)sc2c1,inactive: -22.1%
20,COc1ccc(-n2cc(C(=O)NCc3ccc(Cl)cc3)c3ccccc3c2=O)cc1,inactive: 28.2%
